Data reported in the antibiotic and cytotoxicity screens of Wong et al. (2023).
Some of the results follow.

The compounds below were run on HSkMC (human skeletal muscle cells) (assay: cytotoxicity call (relative viability < 0.9)). Settings: 10 µM.

Row | Structure (SMILES) | cytotoxicity call
1 | C[C@@H]1CN([C@H](C)CO)C(=O)Cc2cc(NC(=O)Nc3cccc4ccccc34)ccc2O[C@H]1CN(C)Cc1ccc(Cl)c(Cl)c1 | inactive
2 | Cc1ccc(S[C@]2(C(=O)NCCCN(C)C)CC(=O)N(Cc3ccccc3Cl)[C@@H]2c2ccc(CO)cc2I)cc1 | inactive
3 | Cc1noc(C)c1S(=O)(=O)NC(C)C | inactive
4 | C[C@H](CO)N1C[C@H](C)[C@H](CN(C)Cc2ccc(-c3ccccc3)cc2)Oc2ccc(NC(=O)C3CC3)cc2C1=O | inactive
5 | COCC(=O)N1C[C@@H](C)[C@@H](OC)CN(C)C(=O)c2ccc(NC(=O)c3ccc(F)cc3)cc2OC[C@H]1C | inactive
6 | COc1ccc(CN(C)C[C@@H]2Oc3ccc(NC(=O)Nc4ccc(C(F)(F)F)cc4)cc3CC(=O)N([C@@H](C)CO)C[C@@H]2C)cc1 | inactive
7 | O=C1c2ccccc2[C@](Cc2ccccc2I)(C(=O)NCc2ccccc2)[C@H](c2ccc(CO)cc2)N1C1CCCCC1 | inactive
8 | C[C@H](CO)N1C[C@H](C)[C@@H](CN(C)Cc2ccncc2)OCCCC[C@H](C)Oc2ccc(NS(=O)(=O)c3ccc(Cl)cc3)cc2C1=O | inactive
9 | O=C(NCc1cccc(F)c1)[C@@H]1[C@@H](CO)[C@@H]2Cn3c(cccc3=O)[C@H]1N2C(=O)c1cnccn1 | inactive
10 | COc1ccc(S(=O)(=O)N(C)C[C@@H]2Oc3cc(-c4ccccc4OC)ccc3S(=O)(=O)N([C@@H](C)CO)C[C@@H]2C)cc1 | inactive
11 | COc1ccc(S(=O)(=O)Nc2ccc3c(c2)C(=O)N([C@H](C)CO)C[C@H](C)[C@H](CN(C)Cc2ccc(Cl)c(Cl)c2)O3)cc1 | inactive
12 | C[C@@H]1CCCCO[C@H](CN(C)S(=O)(=O)c2ccc(Cl)cc2)[C@@H](C)CN([C@@H](C)CO)C(=O)c2cc(NS(=O)(=O)c3cccs3)ccc2O1 | inactive
13 | CN(C)CCCNC(=O)C[C@@H]1CC[C@H]2[C@@H](COc3ccc(NC(=O)c4cccc(F)c4)cc3C(=O)N2C)O1 | inactive
14 | C[C@@H]1CCCCO[C@@H](CN(C)Cc2ccc(Cl)c(Cl)c2)[C@@H](C)CN([C@H](C)CO)C(=O)c2cc(NS(C)(=O)=O)ccc2O1 | inactive
15 | C[C@H]1CN([C@@H](C)CO)C(=O)c2cccc(NC(=O)c3ccc(-c4nccs4)cc3)c2O[C@H]1CN(C)C(=O)NC1CCCCC1 | inactive
16 | C[C@@H]1CN([C@H](C)CO)C(=O)c2cc(NS(=O)(=O)c3ccccc3)ccc2O[C@@H](C)CCCCO[C@H]1CN(C)Cc1ccc(Cl)c(Cl)c1 | inactive
17 | O=C1c2ccccc2C(=O)C1c1ccc(Cl)cc1 | inactive
18 | C[C@H]1CN([C@@H](C)CO)C(=O)c2cc(C#CC3(O)CCCC3)cnc2O[C@H]1CN(C)C(=O)Cc1ccccc1 | inactive
19 | Cc1ccc(S(=O)(=O)Nc2ccc3c(c2)C(=O)N([C@@H](C)CO)C[C@H](C)[C@H](CN(C)C(=O)NC2CCCCC2)OCCCC[C@H](C)O3)cc1 | inactive
20 | COc1ccc(S(=O)(=O)N(C)C[C@@H]2OCCCC[C@@H](C)Oc3ccc(NC(=O)Nc4ccc(F)cc4)cc3C(=O)N([C@@H](C)CO)C[C@@H]2C)cc1 | inactive
21 | C[C@@H]1CN([C@@H](C)CO)S(=O)(=O)c2ccc(C#CC(C)(C)O)cc2O[C@H]1CN(C)C(=O)C1CCCCC1 | inactive
22 | C[C@H]1CN([C@@H](C)CO)S(=O)(=O)c2ccc(C#CCN(C)C)cc2O[C@H]1CN(C)S(C)(=O)=O | inactive
23 | C[C@@H]1CN([C@@H](C)CO)C(=O)c2cccc(NC(=O)Nc3cccc4ccccc34)c2O[C@@H]1CN(C)S(=O)(=O)c1cccs1 | inactive
24 | C[C@@H](NC(=O)c1ccccc1)C(=O)NN | inactive
25 | C[C@H](CO)N1C[C@H](C)[C@@H](CN(C)C(=O)Nc2ccc(F)cc2)OCCCC[C@H](C)Oc2ccc(NS(=O)(=O)c3ccc(Cl)cc3)cc2C1=O | inactive
26 | C[C@@H]1CCCCO[C@@H](CN(C)Cc2ccc(Cl)c(Cl)c2)[C@H](C)CN([C@H](C)CO)C(=O)c2cc(NC(=O)CCC(F)(F)F)ccc2O1 | inactive
27 | C=CC[C@H](CC(=O)NCCO)C(=O)N[C@@H](COC(=O)[C@@H](CC=C)CC(=O)OC(C)(C)C)Cc1ccccc1 | inactive
28 | CC(C)(C)OC(=O)C[C@@H]1CC=CC[C@H](CC(=O)N[C@@H](CO)Cc2ccccc2)C(=O)N2CCC[C@@H]2COC1=O | inactive
29 | O=C(NCCCN1CCOCC1)C(=O)NC1CC1 | inactive
